Results published in article PMC12820563.
Some of the results follow. The list includes weakly bound sequences.

Biological target: T1, MBP-FoxP3dN (UniProt Q99JB6)
T1 sequence: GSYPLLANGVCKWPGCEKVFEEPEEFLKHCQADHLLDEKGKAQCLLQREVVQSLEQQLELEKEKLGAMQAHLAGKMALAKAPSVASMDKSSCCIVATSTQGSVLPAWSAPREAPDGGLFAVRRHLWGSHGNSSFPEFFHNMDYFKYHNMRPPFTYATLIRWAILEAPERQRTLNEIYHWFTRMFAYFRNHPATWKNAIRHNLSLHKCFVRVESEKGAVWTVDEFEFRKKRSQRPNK
Assay: PD-seq (MBP pull-down with sequencing)
Conditions: 20 mM Tris-HCl pH 7.5, 100 mM NaCl, 1.5 mM MgCl2, 0.4 uM protein, 0.1 uM dsDNA library, 30 min, room temperature, amylose pull-down; high values mean tight binding; double strand, one strand shown

Sequence | binding signal (RPM ratio (pull-down/input))
GATGATTGTTCTCCCAGCTGATGAATTTTCTGGCTCGAGTAAACAAATTTTCCTAATCTTTCTGTTCAAGCGCCATCTAC | 0.164
GATGATTGTTCTCCCAGCTGATGAATTCAGCCCATCGAGTAAACAAATTTTCCTAATCTTTCTGTTCAAGCGCCATCTAC | 0.824
GATGATTGTTCTCCCAGCTGATGAATTTTTTTGGTCGAGTAAACAAATTTTCCTAATCTTTCTGTTCAAGCGCCATCTAC | 0.314
GATGATTGTTCTCCCAGCTGATGAATTCACTGTCTCGAGTAAACAAATTTTCCTAATCTTTCTGTTCAAGCGCCATCTAC | 0.45
GATGATTGTTCTCCCAGCTGATGAATTTACGTCATCGAGTAAACAAATTTTCCTAATCTTTCTGTTCAAGCGCCATCTAC | 1.15
GATGATTGTTCTCCCAGCTGATGAATTTTGGCATTCGAGTAAACAAATTTTCCTAATCTTTCTGTTCAAGCGCCATCTAC | 5.56
GATGATTGTTCTCCCAGCTGATGAATTCCTTCAGTCGAGTAAACAAATTTTCCTAATCTTTCTGTTCAAGCGCCATCTAC | 0.231
GATGATTGTTCTCCCAGCTGATGAATTGGGAACATCGAGTAAACAAATTTTCCTAATCTTTCTGTTCAAGCGCCATCTAC | 0.398
GATGATTGTTCTCCCAGCTGATGAATTCGGTTGATCGAGTAAACAAATTTTCCTAATCTTTCTGTTCAAGCGCCATCTAC | 1.64
GATGATTGTTCTCCCAGCTGATGAATTTGGACCTTCGAGTAAACAAATTTTCCTAATCTTTCTGTTCAAGCGCCATCTAC | 0.415
GATGATTGTTCTCCCAGCTGATGAATTGCTATGGTCGAGTAAACAAATTTTCCTAATCTTTCTGTTCAAGCGCCATCTAC | 0.866
GATGATTGTTCTCCCAGCTGATGAATTCCTAACTTCGAGTAAACAAATTTTCCTAATCTTTCTGTTCAAGCGCCATCTAC | 0.231
GATGATTGTTCTCCCAGCTGATGAATTTGTGGTATCGAGTAAACAAATTTTCCTAATCTTTCTGTTCAAGCGCCATCTAC | 4.85
GATGATTGTTCTCCCAGCTGATGAATTCTTAGTTTCGAGTAAACAAATTTTCCTAATCTTTCTGTTCAAGCGCCATCTAC | 0.302
GATGATTGTTCTCCCAGCTGATGAATTAAAACCCTCGAGTAAACAAATTTTCCTAATCTTTCTGTTCAAGCGCCATCTAC | 0.199
GATGATTGTTCTCCCAGCTGATGAATTCAACCAATCGAGTAAACAAATTTTCCTAATCTTTCTGTTCAAGCGCCATCTAC | 0.296

Sequence | binding signal (RPM ratio (pull-down/input))
GATGATTGTTCTCCCAGCTGATGAATTTAGCAGATCGAGTAAACAAATTTTCCTAATCTTTCTGTTCAAGCGCCATCTAC | 0.422
GATGATTGTTCTCCCAGCTGATGAATTGACTAACTCGAGTAAACAAATTTTCCTAATCTTTCTGTTCAAGCGCCATCTAC | 0.383
GATGATTGTTCTCCCAGCTGATGAATTTAGACATTCGAGTAAACAAATTTTCCTAATCTTTCTGTTCAAGCGCCATCTAC | 1.3
GATGATTGTTCTCCCAGCTGATGAATTCTTATCTTCGAGTAAACAAATTTTCCTAATCTTTCTGTTCAAGCGCCATCTAC | 0.32
GATGATTGTTCTCCCAGCTGATGAATTGCTGGCGTCGAGTAAACAAATTTTCCTAATCTTTCTGTTCAAGCGCCATCTAC | 0.67
GATGATTGTTCTCCCAGCTGATGAATTGTAAACTTCGAGTAAACAAATTTTCCTAATCTTTCTGTTCAAGCGCCATCTAC | 1.05
GATGATTGTTCTCCCAGCTGATGAATTACCCGCGTCGAGTAAACAAATTTTCCTAATCTTTCTGTTCAAGCGCCATCTAC | 0.464
GATGATTGTTCTCCCAGCTGATGAATTCCCGAACTCGAGTAAACAAATTTTCCTAATCTTTCTGTTCAAGCGCCATCTAC | 0.183
GATGATTGTTCTCCCAGCTGATGAATTGAGCGATTCGAGTAAACAAATTTTCCTAATCTTTCTGTTCAAGCGCCATCTAC | 0.967
GATGATTGTTCTCCCAGCTGATGAATTGGCATGGTCGAGTAAACAAATTTTCCTAATCTTTCTGTTCAAGCGCCATCTAC | 0.91
GATGATTGTTCTCCCAGCTGATGAATTGTGGTTATCGAGTAAACAAATTTTCCTAATCTTTCTGTTCAAGCGCCATCTAC | 2.03
GATGATTGTTCTCCCAGCTGATGAATTTGCTAGGTCGAGTAAACAAATTTTCCTAATCTTTCTGTTCAAGCGCCATCTAC | 1.49
GATGATTGTTCTCCCAGCTGATGAATTCCCAGCTTCGAGTAAACAAATTTTCCTAATCTTTCTGTTCAAGCGCCATCTAC | 0.272
GATGATTGTTCTCCCAGCTGATGAATTAGCATTTTCGAGTAAACAAATTTTCCTAATCTTTCTGTTCAAGCGCCATCTAC | 4
GATGATTGTTCTCCCAGCTGATGAATTCTCTTATTCGAGTAAACAAATTTTCCTAATCTTTCTGTTCAAGCGCCATCTAC | 0.39
GATGATTGTTCTCCCAGCTGATGAATTCTTGCGATCGAGTAAACAAATTTTCCTAATCTTTCTGTTCAAGCGCCATCTAC | 0.576
